The whole screen tested about 3,200 compounds, of which about 75 (2%) showed an effect of 50% or more. The list shows a part of the results.
These compounds were tested on T1, S. aureus MSSA476. Settings: relative growth, OD600, TSB; 25 µM; inhibitor.
T1 construct: MSSA476
Parameters: species or system S. aureus MSSA476 (TSB) or V. cholerae SAD30 (LB); 384-well bacterial growth screen at 25 uM, OD600 relative to DMSO control

| Compound | % of control remaining [%] |
| --- | --- |
| NC(=O)Cc1ccc(C(=O)CCl)s1 [10-A21, 2-[5-(2-chloroacetyl)thiophen-2-yl]acetamide] | 152.5 |
| COc1cc(Cl)c(C)cc1N1C(=O)C=CC1=O [10-B15, 1-(4-chloro-2-methoxy-5-methylphenyl)-2,5-dihydro-1H-pyrrole-2,5-dione] | 91.875 |
| C=CC(=O)N1CCC(C(=O)N2CCCCC(SCC)C2)CC1 (stereo not shown) [2-P10, 1-{4-[3-(ethylsulfanyl)azepane-1-carbonyl]piperidin-1-yl}prop-2-en-1-one] | 76.9365 |
| C=CC(=O)NC(c1ccccc1)c1nc(C)no1 (stereo not shown) [1-B13, N-[(3-methyl-1,2,4-oxadiazol-5-yl)(phenyl)methyl]prop-2-enamide] | 150.857 |
| C=CC(=O)NCC1CCS(=O)(=O)C1(C)C (stereo not shown) [1-O16, N-[(2,2-dimethyl-1,1-dioxo-1lambda6-thiolan-3-yl)methyl]prop-2-enamide] | 125.89 |
| CCC(C)(C)C1CCc2c(sc(NC(=O)CCl)c2C#N)C1 (stereo not shown) [5-A05, 2-chloro-N-[3-cyano-6-(2-methylbutan-2-yl)-4,5,6,7-tetrahydro-1-benzothiophen-2-yl]acetamide] | 77.9599 |
| C=CC(=O)NC1CCC(S(C)(=O)=O)C1 (stereo not shown) [3-F18, N-(3-methanesulfonylcyclopentyl)prop-2-enamide] | 114.236 |
| Cc1c(C=C(C#N)C(=O)NCC2(c3ccccc3)CC2)cc(C#N)n1C [8-E22, 2-cyano-3-(5-cyano-1,2-dimethyl-1H-pyrrol-3-yl)-N-[(1-phenylcyclopropyl)methyl]prop-2-enamide] | 97.5934 |
| CCc1ccc(NC(=O)CCl)cc1 [4-P03, 2-chloro-N-(4-ethylphenyl)acetamide] | 94.1401 |
| C=CC(=O)NCc1cc(-c2ccccc2OC)no1 [2-C18, N-{[3-(2-methoxyphenyl)-1,2-oxazol-5-yl]methyl}prop-2-enamide] | 111.053 |
| CC(=O)N1CCc2cc(C(=O)C(C)Cl)ccc21 (stereo not shown) [10-L22, 1-(1-acetyl-2,3-dihydro-1H-indol-5-yl)-2-chloropropan-1-one] | 124.375 |
| COc1cc(NC(=O)CCl)cc(OC)c1OC [4-N12, 2-chloro-N-(3,4,5-trimethoxyphenyl)acetamide] | 89.9476 |
| CC(Cl)C(=O)NC1COc2ccc(F)cc21 (stereo not shown) [7-A17, 2-chloro-N-(5-fluoro-2,3-dihydro-1-benzofuran-3-yl)propanamide] | 95.4474 |

From article PMC11995724, “Antibiotic target discovery by integrated phenotypic and activity-based profiling of electrophilic fragments” (Cell chemical biology, 2025)
